This is an account of results in article PMC4336329 (PLoS ONE, 2015).

Hit rate of the full screen: of about 310,000 compounds, about 2,200 (0.71%) showed an effect of 50% or more. The effect is printed as a negative number. The list shows a part of the results.

For this test, the target named is human ether-à-go-go-related gene (hERG) potassium channel (human, UniProt Q12809). Briefly: primary screen, population patch clamp on CHO cells stably expressing hERG.
Chain of human ether-à-go-go-related gene (hERG) potassium channel (Q12809 whole entry, looked up): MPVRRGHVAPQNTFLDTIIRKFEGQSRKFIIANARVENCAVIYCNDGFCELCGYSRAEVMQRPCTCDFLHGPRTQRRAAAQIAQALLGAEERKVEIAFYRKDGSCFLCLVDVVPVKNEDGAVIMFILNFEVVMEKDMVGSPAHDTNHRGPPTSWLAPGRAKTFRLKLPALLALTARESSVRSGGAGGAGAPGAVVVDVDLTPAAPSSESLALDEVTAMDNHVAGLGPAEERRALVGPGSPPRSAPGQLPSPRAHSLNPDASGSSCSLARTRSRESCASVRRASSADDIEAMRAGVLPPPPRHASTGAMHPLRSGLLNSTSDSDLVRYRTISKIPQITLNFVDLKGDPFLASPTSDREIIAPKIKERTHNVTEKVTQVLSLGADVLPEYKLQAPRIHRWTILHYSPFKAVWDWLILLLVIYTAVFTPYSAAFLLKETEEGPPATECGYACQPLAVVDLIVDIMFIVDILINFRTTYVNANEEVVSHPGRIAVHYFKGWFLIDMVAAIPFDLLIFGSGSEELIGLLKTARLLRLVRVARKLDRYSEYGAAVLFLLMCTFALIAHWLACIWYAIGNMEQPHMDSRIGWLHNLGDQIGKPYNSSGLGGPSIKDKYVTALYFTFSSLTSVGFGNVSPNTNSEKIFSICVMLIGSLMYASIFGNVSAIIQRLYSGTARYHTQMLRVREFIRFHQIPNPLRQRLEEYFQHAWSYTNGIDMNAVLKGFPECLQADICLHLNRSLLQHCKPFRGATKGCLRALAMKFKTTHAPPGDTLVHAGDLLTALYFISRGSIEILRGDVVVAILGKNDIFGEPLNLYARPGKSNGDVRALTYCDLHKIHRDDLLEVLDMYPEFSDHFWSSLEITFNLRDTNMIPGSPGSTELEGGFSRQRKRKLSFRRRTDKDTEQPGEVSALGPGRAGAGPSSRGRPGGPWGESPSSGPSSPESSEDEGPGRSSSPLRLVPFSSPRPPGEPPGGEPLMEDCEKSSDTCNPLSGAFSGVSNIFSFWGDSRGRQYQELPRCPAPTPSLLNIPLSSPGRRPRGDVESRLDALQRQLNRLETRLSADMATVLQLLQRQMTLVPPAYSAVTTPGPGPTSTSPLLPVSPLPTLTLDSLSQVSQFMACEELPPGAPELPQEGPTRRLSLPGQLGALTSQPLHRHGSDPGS
Regarding `O=C(CCc1nnc2ccc(NCc3ccco3)nn12)N1CCN(c2ccccc2F)CC1`, the “hERG current change (%, negative = inhibition) at 1uM” value is reported as 0.147%. On to `O=C(Nc1ccc(O)cc1)c1ccc(NC(=O)c2ccco2)cc1`, for which the “hERG current change (%, negative = inhibition) at 1uM” value was 11.6%. The same measure for `CC(=O)N1N=C(c2ccc(C)cc2)OC1c1ccc(C(C)C)cc1` (stereo not drawn): 13.2%; for `Cc1cccc(NC(=O)CCC(=O)NCCO)c1`: 14%; for `Oc1ccccc1-[n+]1c(-c2ccccc2)cc(-c2ccccc2)c(O)c1-c1ccccc1.[O-][Cl+3]([O-])([O-])[O-]`: 13%. In the case of `Cc1nn(C(C)C(=O)NCCCc2ccccc2)c(=O)c2cc3occc3n12` (stereo not drawn), the “hERG current change (%, negative = inhibition) at 1uM” value was 2.45%. Take `O=C(OCCN1C(=O)c2ccccc2C1=O)c1cnccn1`: the “hERG current change (%, negative = inhibition) at 1uM” value is given as 13.6%. Then `COc1cccc(NS(=O)(=O)NC(=O)c2c[nH]c3ccccc23)c1`, with 8.47%; and `O=C(CCC(=O)N1CCOc2ccccc21)N1CCCCC1`, with 0.834%.

As to `O=C1CCCCCN1Cc1nnc(SCc2nc3ccccc3s2)n1-c1ccccn1`, the “hERG current change (%, negative = inhibition) at 1uM” value came to 9.51%. Then `CCC(CC)C(=O)Nc1nnc(SCC(=O)NC2CCCCC2)s1`, with 12.2%; and `O=C(c1ccc(Cl)c(S(=O)(=O)N2CCCCCC2)c1)N1CCN(c2ccccc2O)CC1`, with 6.28%; and `O=C(NCCS(=O)(=O)N1CCN(c2ccccc2)CC1)C1CC1`, with 11%.

`CCC(C(=O)N1CCOCC1)n1nc(C)c2c(C)n(-c3ccccc3)nc2c1=O` (stereo not drawn): the “hERG current change (%, negative = inhibition) at 1uM” value worked out at 6.73%. The same measure for `CC1CCN(C(=O)CSc2nc3c(c(=O)n2C)SCC3)CC1`: 12.2%. Then `Cl.Nc1cc(Cl)ccc1Oc1ccc(Cl)cc1`, with 9.81%; and `O=c1cc(CN2CCN(S(=O)(=O)c3ccccc3[N+](=O)[O-])CC2)nc2sccn12`, with -10.7%; and `Cc1ccccc1NC(=O)Cn1c(=O)n(CC2CCCO2)c(=O)c2ccccc21` (stereo not drawn), with 14%. Then `Cc1c(CCOC(=O)C23CC4CC(CC(C)(C4)C2)C3)sc[n+]1Cc1ccccc1.[Cl-]`, with -0.114%; and `Cc1ccc(OC(=O)CCC(=O)NC(C)c2ccccc2)cc1` (stereo not drawn), with 9.51%; and `CCNS(=O)(=O)c1ccc(CCC(=O)NC2CCCC2)cc1`, with 17.8%. For the molecule `Cc1ccc2nc(NC(=O)c3ccc4ncsc4c3)sc2c1`, the “hERG current change (%, negative = inhibition) at 1uM” value was determined as 8.42%. The same measure for `COC(CNC(=O)CNC(=S)N(CCCN1CCOCC1)Cc1cccs1)OC`: 10.7%; for `CCCCCn1c(C(C)NC(=O)CCC)nc2ccccc21` (stereo not drawn): -1.01%; for `CCOc1ccc(C(C)NC(=S)NC2CCCCC2)cc1OCC` (stereo not drawn): 13.3%. Then `Cc1nnc2n(Cc3ccccc3)c(=O)c3c4c(sc3n12)COC(C)(C)C4`, with 6.63%. The same measure for `Cc1cc(C)c2cc(C(=O)Nc3ccc(C)c(F)c3)[nH]c2c1`: 13.5%; for `O=Cc1cccn1-c1ccccc1`: 16.9%. Consider `O=C(NCc1cccs1)C1CCCN(S(=O)(=O)c2cccc3cccnc23)C1` (stereo not drawn), for which the “hERG current change (%, negative = inhibition) at 1uM” value is -6.11%. The same measure for `CN(C)/C=N/c1sc2c(c1C#N)CC(C)(C)NC2(C)C`: 12.3%. The same measure for `C=CCn1c(NCc2ccco2)nc2ccccc21`: 10.9%; for `CCN(CC)CCCNCC(=O)Nc1cc(C)on1.O=C(O)C(=O)O`: 5.61%. Then `Cc1onc(-c2ccccc2)c1C(=O)OCC(=O)c1ccccc1`, with 7.18%. Turning to `COc1cc2cc(CCOC(=O)c3ccc(C(F)(F)F)cc3)oc(=O)c2cc1OC`, the “hERG current change (%, negative = inhibition) at 1uM” value amounted to 15.4%. Turning to `O=C(NC(=S)Nc1ccc(Br)cc1)C1CCCCC1`, the “hERG current change (%, negative = inhibition) at 1uM” value was 9.25%.

On to `Cc1cc(NC(=O)c2cccc(C)c2[N+](=O)[O-])no1`, for which the “hERG current change (%, negative = inhibition) at 1uM” value is on record as 11.6%. Then `COc1ccccc1C(=O)Nc1nnc(S(=O)(=O)N2CCOCC2)s1`, with 11.2%. The same measure for `O=C(Cn1cncn1)NCc1cccc(C(F)(F)F)c1`: 13.4%; for `Cl.NS(=O)(=O)c1ccc(CCNCc2ccccc2OCc2ccc(Cl)cc2)cc1`: -70.5%; for `Cc1cc(C(F)(F)F)nc(SCC(=O)Nc2cc(C)on2)n1`: 2.26%. The same measure for `Cc1ccc2cccc(OCCCOc3ccccc3CO)c2n1`: 8.64%; for `COCC(C)N1CCC(n2nccc2NC(=O)CCOc2ccccc2)CC1` (stereo not drawn): 1.52%. For the molecule `CC1=Nn2c(nnc2-c2ccc(F)cc2)SC1`, the “hERG current change (%, negative = inhibition) at 1uM” value came out at 2.16%. The same measure for `O=[N+]([O-])c1ccc(C(O)C(CO)NC(=S)Nc2ccccc2)cc1` (stereo not drawn): 6.18%; for `CN1C(=O)/C(=C/c2cccc(Cl)c2)Sc2ccc(C(=O)NCc3cccnc3)cc21`: 7.79%; for `Cc1nc2cc(C(=O)N3CCc4ccccc43)ccc2n1-c1ccc(F)c(F)c1`: -4.3%. The same measure for `COc1ccc(CSCCNC(=S)Nc2ccccc2)cc1Cl`: 17%; for `O=C(c1cc(-c2ccc(Cl)s2)nc2ccccc12)N1CCCC1`: 8.74%. The same measure for `C/C(=N/OC(=O)c1ccc(Cl)cc1Cl)c1oc(C)nc1C`: 9.71%; for `CCOCCCNCc1ccc(Cl)cc1`: -1.64%. Regarding `O=C(Nc1ccc(N2CCOCC2)cc1Cl)C1CCN(C(=O)OCc2ccccc2)CC1`, the “hERG current change (%, negative = inhibition) at 1uM” value worked out at 9.14%.

Consider `O=C1NC(=S)N/C1=C/c1cccn1-c1ccc([N+](=O)[O-])cc1`, for which the “hERG current change (%, negative = inhibition) at 1uM” value was found to be 13.2%. `Cc1ccc(-c2ccc(OC(=O)c3ccc(=O)[nH]c3)c(C)c2)cc1`: the “hERG current change (%, negative = inhibition) at 1uM” value worked out at 7.2%. The same measure for `CCc1cccc(C)c1N(C(=O)Cn1c(=O)[nH]c2ccccc21)C(C)COC` (stereo not drawn): 10.3%. The same measure for `COc1ccc(/C=N/NC(=S)NCC2CCCO2)cc1` (stereo not drawn): 14.4%; for `Cc1ccc(C(=O)CC2(O)C(=O)N(CCc3ccccc3)c3ccc(Br)cc32)o1` (stereo not drawn): 2.06%; for `Cc1nn(-c2ccccc2)c(C)c1NC(=O)COc1ccc(Cl)cc1Cl`: -18.7%. Then `Cc1cccc(NC(=O)c2nc[nH]c2C(=O)N2CCC(C)CC2)c1`, with 15%; and `O=C1SCC(c2ccccc2)=NN1Cc1ccccc1`, with 18.1%; and `FC(F)(F)c1cccnc1N1CCN(c2ncnc3nc[nH]c23)CC1`, with 15.2%.

As to `CCOc1ccc(CNC(=O)CCCn2nc(CC)n3c(cc4occc43)c2=O)cc1`, the “hERG current change (%, negative = inhibition) at 1uM” value stood at 8.06%. Then `COc1ccccc1N=C1NC(=O)/C(=C/c2ccc(N(C)C)cc2)S1`, with 11.3%; and `O=C(c1ccco1)N1CCN(C(=S)NC2CC3CCC2C3)CC1` (stereo not drawn), with -8.53%; and `CSCCC(NS(=O)(=O)/C=C/c1ccccc1)C(=O)N1CCC(C)CC1` (stereo not drawn), with -7.28%. Then `Clc1ccc(Cn2ccc3ccccc32)cn1`, with 7.09%; and `CCCCN(CC)C(=O)c1cc2c(=O)[nH]c3ccc(C)cc3c2s1`, with 14.2%; and `CCOC(=O)/C(C#N)=C1\CCCN1CC(N)=S`, with 7.15%. Then `NC(=O)c1nsc(C(=O)N(c2ccccc2)C(C(=O)NCc2ccc(F)cc2)c2ccco2)c1N` (stereo not drawn), with 15.4%; and `CCN(CC)C(=O)CN(c1ccc(Cl)cc1)S(=O)(=O)c1ccccc1`, with 4.6%. For `O=C(COC(=O)CNS(=O)(=O)/C=C/c1ccccc1)Nc1cc(S(=O)(=O)N2CCCCC2)ccc1Cl`, the “hERG current change (%, negative = inhibition) at 1uM” value is 14.6%.

On to `CC(C)Cc1nnc(NC(=O)CN2C(=O)NC3(CC(C)CC(C)(C)C3)C2=O)s1` (stereo not drawn), for which the “hERG current change (%, negative = inhibition) at 1uM” value was found to be 6.76%. The same measure for `CCN(CC)C(=O)Oc1cc(=O)n2c3c(cccc13)CCC2`: 9.66%. The same measure for `CC(=O)c1cc(CN2CCN(C3CCN(C(C)C)CC3)C(CCO)C2)cs1` (stereo not drawn): -3.84%; for `COc1ccc(O)c(/C=N/NC(=O)c2c(C)nnn2-c2nonc2N)c1`: 20.2%; for `O=C(NCCS(=O)(=O)NC1CCCCC1)c1ccccc1`: 1.61%. The same measure for `Fc1ccccc1NC(=S)NN(Cc1ccccc1)c1ccccc1`: -16.2%; for `Cc1ccc(OCC(=O)Nc2cc(-c3nn4c(C)nnc4s3)ccc2C)cc1`: -2.75%. On to `Cc1ccc(/C=N/n2c(C3CCCCC3)n[nH]c2=S)o1`, for which the “hERG current change (%, negative = inhibition) at 1uM” value was determined as 11.8%. The same measure for `CN(C)S(=O)(=O)c1cccc(C(=O)NC2CCSc3ccccc32)c1` (stereo not drawn): 5.86%.

Regarding `COc1cccc(N2C(=O)CC(NNc3nc4ccccc4s3)C2=O)c1` (stereo not drawn), the “hERG current change (%, negative = inhibition) at 1uM” value is listed as 7.66%.

On to `O=S1(=O)N=C(N2CCOCC2)c2ccccc21`, for which the “hERG current change (%, negative = inhibition) at 1uM” value stood at 0.94%. Then `Cc1onc(-c2ccccc2)c1C(=O)Nc1ccccc1N1CCOCC1`, with 1.67%; and `Cc1cccnc1NC(=O)C1CCCN1S(=O)(=O)c1ccc(Cl)cc1` (stereo not drawn), with 10.6%. Then `Cc1c(CC(=O)O)c(=O)oc2c(C)c3occ(-c4ccc(Br)cc4)c3cc12`, with 7.51%; and `CC(NC(=O)C(=O)NN=C1CCC(C(C)(C)C)CC1)c1ccccc1` (stereo not drawn), with -1.12%. Then `O=S(=O)(Nc1cccc(-c2cn3cccnc3n2)c1)c1ccc(-c2ccccc2)cc1`, with 12.7%; and `O=C(CN1C(=O)CSC1=O)N1CCCCC1`, with 5.48%; and `Cc1ccc(CNCCNCCO)s1.Cl`, with 1.64%. For `CCCCNc1c(-c2ccc(SC3CCCCC3)cc2)nc2ccccn12.O=C(O)C(F)(F)F`, the “hERG current change (%, negative = inhibition) at 1uM” value is given as 6.71%.

Take `C=C1[C@H]2CC[C@H]3[C@]4(C)C[C@H](O[C@H]5O[C@H](CO)[C@@H](OS(=O)(=O)[O-])[C@H](OS(=O)(=O)[O-])[C@H]5OC(=O)CC(C)C)C[C@@H](C(=O)O)[C@H]4CC[C@]3(C2)[C@H]1O.[K+]`: the “hERG current change (%, negative = inhibition) at 1uM” value worked out at 12.9%.
